Screen size: about 300,000 compounds; about 22,000 (7.3%) were called active. This list was built around the results that the source calls inconclusive (neither active nor inactive); the mix of calls is not that of the screen. No stated cut-off is given here; in the data, active means activity score below about -60%; inconclusive means mostly about -28% to -61%; inactive means positive scores.
Test: Activators via SNCA 5'UTR binding, MLPCN (AID 1814)
Conditions: alpha-synuclein 5'UTR reporter, activators screen; hits give low values; tested at 7.5 µM

Question: For `O=C(Cc1ccccc1Cl)Nc1cccc(S(=O)(=O)N2CCOCC2)c1`, which activity score is on record?
Answer: inconclusive: -47.6%

Question: For `CC1CCc2nc(/C(C#N)=C/c3cccnc3)sc2C1` (stereo not drawn), which activity score is on record?
Answer: active: -192%

Question: For `O=C(Nc1cccc(NC(=O)c2cccs2)c1)c1ccc2c(c1)OCCO2`, which activity score is on record?
Answer: inconclusive: -50.1%

Question: For `COc1ccc(C)cc1NC(=O)CNC(c1ccccc1)c1ccc(C)cc1` (stereo not drawn), which activity score is on record?
Answer: inactive: 103%

Question: For `Cn1cc(Br)c(C(=O)NNC(=O)c2ccccc2)n1`, which activity score is on record?
Answer: inconclusive: -33.9%

Question: With `CC(=O)Nc1nc(NC(=O)/C=C/c2ccccc2)n(-c2ccccc2)n1` as the molecule, how does the activity score read?
Answer: inactive: 78.9%

Question: Which activity score does the source give for `CSCCCNC(=S)Nc1ccc(N2CCOCC2)cc1` here?
Answer: inconclusive: -61.3%

Question: For `O=S(=O)(Nc1cccc2ccccc12)c1cccs1`, which activity score is on record?
Answer: inconclusive: -31%

Question: With `COc1ccccc1-c1nnc(-c2ccc(N3CCOCC3)cc2)o1` as the molecule, how does the activity score read?
Answer: active: -106%

Question: With `O=C(C1=C(O)C(=O)N(c2ncccn2)C1c1cccc(Cl)c1)c1ccco1` (stereo not drawn) as the molecule, how does the activity score read?
Answer: inconclusive: -54.9%

Question: For `O=C(Nc1ccccc1C(=O)Nc1ccc2c(c1)OCO2)c1cccs1`, which activity score is on record?
Answer: inconclusive: -60.8%

Question: With `CC(C)CCNC(=O)C1CCC(CNS(=O)(=O)c2cccc3nsnc23)CC1` (stereo not drawn) as the molecule, how does the activity score read?
Answer: inconclusive: -49.9%

Question: With `COC(=O)Cc1csc(Nc2ccccc2)n1` as the molecule, how does the activity score read?
Answer: inconclusive: -47%

Question: Which activity score does the source give for `Cc1ccc(Oc2ncc(-c3ccc(Cl)cc3)cn2)cc1` here?
Answer: inconclusive: -42%

Question: For `Cn1c(SCC(=O)c2ccccc2)nnc1-c1ccco1`, which activity score is on record?
Answer: inconclusive: -57.2%

Question: For `COc1ccc2nc(C)cc(N/N=C/c3ccc(F)cc3)c2c1`, which activity score is on record?
Answer: inactive: 92.6%

Question: Which activity score does the source give for `NS(=O)(=O)c1cccc(NC(=O)CCSc2ccccc2Cl)c1` here?
Answer: active: -120%

Question: Which activity score does the source give for `CN1N=C2c3ccccc3CCC2C1c1ccc(C(F)(F)F)cc1` (stereo not drawn) here?
Answer: active: -71.6%

Question: For `CCCNC(=O)c1ccc(N2CCC3(CC2)CC(c2ccccc2)=NO3)c(NC(=O)c2ccccc2)c1`, which activity score is on record?
Answer: inactive: 59.4%

Question: With `CCCn1nnc(NC(=O)/C=C/c2ccccc2)n1` as the molecule, how does the activity score read?
Answer: inconclusive: -46.7%

Question: For `Nc1ccccc1Sc1nc2ccccc2[nH]1`, which activity score is on record?
Answer: inconclusive: -47.5%

Question: For `O=C(NCc1ccccc1)C1=C[C@@H](c2csc3ccccc23)C[C@@H](OCCCCO)O1`, which activity score is on record?
Answer: inactive: 94.9%

Question: Which activity score does the source give for `Cc1ccccc1N/N=C/c1ccc(N2CCOCC2)cc1` here?
Answer: inconclusive: -53%

Question: Which activity score does the source give for `Cc1ccc(C(=O)N/N=C2\CCCc3ccccc32)c(C)c1` here?
Answer: active: -161%

Question: With `COc1ccc(OCc2cc(C(=O)NCC3(C)COC3)no2)c(Cl)c1` as the molecule, how does the activity score read?
Answer: inconclusive: -57.1%

Question: With `O=[N+]([O-])c1nn(-c2ccc(Cl)cc2)n(O)c1=NCc1ccncc1` as the molecule, how does the activity score read?
Answer: inconclusive: -49%

Question: With `CC(C)c1ccccc1-n1c(SCC(=O)c2ccc3c(c2)NC(=O)CO3)nc2ccccc2c1=O` as the molecule, how does the activity score read?
Answer: inactive: 51.4%

Question: Which activity score does the source give for `CCOc1ccc(-c2nnc(N)o2)cc1` here?
Answer: inconclusive: -46.1%

Question: With `O=C(Nc1ccc(-c2nc3cccnc3s2)cc1)c1ccco1` as the molecule, how does the activity score read?
Answer: inconclusive: -51.1%

Question: For `CCOC(=O)C1=C(COC(=O)c2ccc(OC)c(OC)c2OC)NC(=O)NC1C` (stereo not drawn), which activity score is on record?
Answer: inconclusive: -55.5%

Question: For `CCN1C(=O)C(=Cc2cccc(OC)c2Oc2ccc([N+](=O)[O-])cc2[N+](=O)[O-])SC1=S`, which activity score is on record?
Answer: inactive: 80.3%

Question: For `COc1cccc(/C=N/Nc2cc(-n3nc(C)cc3-c3ccccc3)ncn2)c1O`, which activity score is on record?
Answer: inactive: 110%

Question: With `Cc1cc(Nc2ccccc2)n(C(=O)c2ccccc2)n1` as the molecule, how does the activity score read?
Answer: inconclusive: -45.6%

Question: With `Cn1cccc1-c1nc2ccc(NC(=O)c3ccco3)cc2[nH]1` as the molecule, how does the activity score read?
Answer: active: -132%

Question: With `CCCc1cc(C(=O)Nc2cc(Br)ccc2O)no1` as the molecule, how does the activity score read?
Answer: active: -145%

Question: For `COc1ccc(-c2csc(/C(C#N)=C/Nc3cc4oc5ccccc5c4cc3OC)n2)cc1`, which activity score is on record?
Answer: inactive: 43.4%

Question: Which activity score does the source give for `O=C(CSc1n[nH]c(=O)n1Cc1ccco1)c1ccc2c(c1)OCCO2` here?
Answer: inconclusive: -48.3%

Question: For `CSc1ncccc1C(=O)Nc1nc2ccc(F)cc2s1`, which activity score is on record?
Answer: inconclusive: -46.9%

Question: For `C/C(CC(=O)Nc1cc(C)ccn1)=N\NC(=O)c1cccc(C)c1`, which activity score is on record?
Answer: inconclusive: -44.6%

Question: With `Cc1ccc(C(=O)Nc2ccc(Nc3ccccc3)cc2)cc1Br` as the molecule, how does the activity score read?
Answer: inconclusive: -59.7%

Question: With `COc1ccc(-c2noc(CCCC(=O)NC3CCCC3)n2)cc1` as the molecule, how does the activity score read?
Answer: inactive: 62.4%

Question: Which activity score does the source give for `CCCCN(CC)S(=O)(=O)c1ccc(C(=O)Nc2nnc(-c3ccccc3Cl)o2)cc1` here?
Answer: inactive: 76.3%

Question: Which activity score does the source give for `O=C(NCc1cccnc1)/C(=C\c1ccc(-c2ccc(Cl)c(Cl)c2)o1)S(=O)(=O)c1ccccc1` here?
Answer: active: -332%

Question: With `COc1ccc2cc3c(N)c(C(=O)NCc4ccco4)sc3nc2c1` as the molecule, how does the activity score read?
Answer: active: -192%

Question: With `CCOc1ccc(-n2c(SCC(=O)Nc3cc(C)on3)nnc2-c2c[nH]c3ccccc23)cc1` as the molecule, how does the activity score read?
Answer: inconclusive: -54.3%

Question: With `COc1ccc(C(CC(=O)Nc2ccc(C)cn2)N2Cc3ccccc3C2=O)cc1` (stereo not drawn) as the molecule, how does the activity score read?
Answer: inconclusive: -54.5%

Question: For `COC(=O)C1C(=O)c2c([nH]c(C(=O)OCCOC(C)C)c2C)CC1C` (stereo not drawn), which activity score is on record?
Answer: inconclusive: -59.1%

Question: Which activity score does the source give for `CCOC(=O)Cc1csc(NC(=O)c2cc3ccccc3o2)n1` here?
Answer: inconclusive: -55.6%

Question: With `CC(C)c1ccc(-c2nc3ccccc3s2)cc1` as the molecule, how does the activity score read?
Answer: inactive: 98.5%

Question: With `c1cn2c(Nc3ccc4c(c3)OCCO4)c(-c3ccc(N4CCOCC4)cc3)nc2cn1` as the molecule, how does the activity score read?
Answer: inconclusive: -57.9%

Question: Which activity score does the source give for `COc1cc(SC)ccc1C(=O)Nc1nc2ccccc2[nH]1` here?
Answer: inactive: 131%

Question: For `O=[N+]([O-])c1ccc(N/N=C/c2sc(N3CCOCC3)nc2-c2ccccc2)c(S(=O)(=O)Nc2ccc(Cl)cc2)c1`, which activity score is on record?
Answer: inactive: 75.8%

Question: Which activity score does the source give for `Cc1ccc(C)c(NC(=S)N/N=C/C(C)c2ccccc2)c1` (stereo not drawn) here?
Answer: inconclusive: -34%

Question: With `O=C(O)C(Cc1c[nH]c2ccccc12)N1Cc2ccccc2C1=O` (stereo not drawn) as the molecule, how does the activity score read?
Answer: inconclusive: -59.1%

Question: Which activity score does the source give for `CCCCn1nnc(NC(=O)c2ccc(-c3cccc(Cl)c3)o2)n1` here?
Answer: inconclusive: -47%

Question: For `COc1ccc(Nc2nc3ccc(C)cc3cc2C#N)c(OC)c1`, which activity score is on record?
Answer: inconclusive: -49.8%

Question: For `COc1ccc(-c2cn3c(C)c(C(=O)NCCN4CCOCC4)sc3n2)cc1`, which activity score is on record?
Answer: inconclusive: -46%

Question: Which activity score does the source give for `CCC(c1nnnn1CCc1ccccc1)N(Cc1ccco1)Cc1cc2c(C)ccc(C)c2[nH]c1=O` (stereo not drawn) here?
Answer: inactive: 44.2%

— PubChem BioAssay AID1814 (Broad Institute, 2009)
